Measurements from patent US20210047304A1, “Bromodomain Inhibitors” (AbbVie Inc., priority 2016, published 2021).

Molecular target: BRD4 (BDII_E352-M457) (Homo sapiens, UniProt O60885)
Assay: TR-FRET bromodomain binding assay, BRD4 BDII

SMILES | Ki
Cc1cc(F)cc(C)c1Oc1ccc(C(C)(C)O)cc1-c1cn(C)c(=O)cc1O[C@H]1CC[C@H](N2CCCN(C)C2=O)CC1 [Example 41, 1-[trans-4-({5-[2-(4-fluoro-2,6-dimethylphenoxy)-5-(2-hydroxypropan-2-yl)phenyl]-1-methyl-2-oxo-1,2-dihydropyridin-4-yl}oxy)cyclohexyl]-3-methyltetrahydropyrimidin-2(1H)-one] | 1.2 nM
Cc1cc(F)cc(C)c1Oc1ccc(C(C)(C)O)cc1-c1cn(C)c(=O)cc1O[C@H]1CC[C@H](C#N)CC1 [Example 69, trans-4-({5-[2-(4-fluoro-2,6-dimethylphenoxy)-5-(2-hydroxypropan-2-yl)phenyl]-1-methyl-2-oxo-1,2-dihydropyridin-4-yl}oxy)cyclohexane-1-carbonitrile] | 12.2 nM
CCN1CC(=O)N([C@H]2CC[C@H](Oc3cc(=O)n(C)cc3-c3cc(C(C)(C)O)ccc3Oc3c(C)cc(F)cc3C)CC2)C1=O [Example 127, 1-ethyl-3-[trans-4-({5-[2-(4-fluoro-2,6-dimethylphenoxy)-5-(2-hydroxypropan-2-yl)phenyl]-1-methyl-2-oxo-1,2-dihydropyridin-4-yl}oxy)cyclohexyl]imidazolidine-2,4-dione] | 6.77 nM
COCCN1CC(=O)N([C@H]2CC[C@H](Oc3cc(=O)n(C)cc3-c3cc(C(C)(C)O)ccc3Oc3c(C)cc(F)cc3C)CC2)C1=O [Example 135, 3-[trans-4-({5-[2-(4-fluoro-2,6-dimethylphenoxy)-5-(2-hydroxypropan-2-yl)phenyl]-1-methyl-2-oxo-1,2-dihydropyridin-4-yl}oxy)cyclohexyl]-1-(2-methoxyethyl)imidazolidine-2,4-dione] | 3.7 nM
Cc1cc(F)cc(C)c1Oc1ccc(C(C)(C)O)cc1-c1cn(C)c(=O)cc1O[C@H]1CC[C@H](NNC(=O)OC(C)(C)C)CC1 [Example 106, tert-butyl 2-[trans-4-({5-[2-(4-fluoro-2,6-dimethylphenoxy)-5-(2-hydroxypropan-2-yl)phenyl]-1-methyl-2-oxo-1,2-dihydropyridin-4-yl}oxy)cyclohexyl]hydrazine-1-carboxylate] | 71.3 nM

More lines, now with the values ahead:

Ki | SMILES
13.1 nM | Cc1cc(F)cc(C)c1Oc1ccc(C(C)(C)O)cc1-c1cn(C)c(=O)cc1O[C@H]1CC[C@H](NC(=O)N2CCOCC2)CC1 [Example 122, N-[trans-4-({5-[2-(4-fluoro-2,6-dimethylphenoxy)-5-(2-hydroxypropan-2-yl)phenyl]-1-methyl-2-oxo-1,2-dihydropyridin-4-yl}oxy)cyclohexyl]morpholine-4-carboxamide]
3.82 nM | Cc1cc(F)cc(C)c1Oc1ccc(C(C)(C)O)cc1-c1cn(C)c(=O)cc1O[C@H]1CC[C@H](NC(=O)C2(C#N)CCC2)CC1 [Example 88, 1-cyano-N-[trans-4-({5-[2-(4-fluoro-2,6-dimethylphenoxy)-5-(2-hydroxypropan-2-yl)phenyl]-1-methyl-2-oxo-1,2-dihydropyridin-4-yl}oxy)cyclohexyl]cyclobutane-1-carboxamide]
68.3 nM | CC(=O)NN[C@H]1CC[C@H](Oc2cc(=O)n(C)cc2-c2cc(C(C)(C)O)ccc2Oc2c(C)cc(F)cc2C)CC1 [Example 105, N′-[trans-4-({5-[2-(4-fluoro-2,6-dimethylphenoxy)-5-(2-hydroxypropan-2-yl)phenyl]-1-methyl-2-oxo-1,2-dihydropyridin-4-yl}oxy)cyclohexyl]acetohydrazide]
2.54 nM | Cc1cccc(C)c1Oc1ccc(CN(C)C(N)=O)cc1-c1cn(C)c(=O)cc1O[C@H]1CC[C@H](NC(=O)C2(C)CC2)CC1 [Example 115, N-[trans-4-({5-[5-{[carbamoyl(methyl)amino]methyl}-2-(2,6-dimethylphenoxy)phenyl]-1-methyl-2-oxo-1,2-dihydropyridin-4-yl}oxy)cyclohexyl]-1-methylcyclopropane-1-carboxamide]
